Test results reported in PubChem BioAssay AID493208 (National Center for Advancing Translational Sciences (NCATS), 2011).
The whole screen tested about 44,000 compounds, of which about 340 (0.77%) were called active. Inconclusive results (about 5%) are left out. Calls come from the whole dose curve; as a rule, active = well fitted inhibition curve with a large enough effect; inconclusive = small, poorly fitted or top-dose-only effect; inactive = flat fitted curve, though single readings scatter. The list shows a part of the results.

assay: Acumen qHTS Assay for Inhibitors of the mTORC1 Signaling Pathway in MEF (Tsc2-/-, p53-/-) Cells: Sytravon; settings: phospho-rpS6 immunofluorescence/PI, 24 h; series mostly up to 38.3 µM; activity change, negative = inhibition: at the top concentration;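 note: plate controls were DMSO for no effect and rapamycin for full effect; nearly all actives have a fitted effect of over 50% in size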
In short: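 Compounds act on Tsc2-/-, p53-/- fibroblasts carrying an empty vector for 24 h before fixation and dual staining for phospho-S6 and DNA (propidium iodide). Values are percentages of cells above a rapamycin-defined pS6/PI threshold.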

Activity change, negative = inhibition, inactive:
Cc1oc(-c2ccccc2Cl)nc1CS(=O)CC(=O)NCc1ccccc1Cl (stereo unspecified) 1.27%, COc1ccc(NC(=O)CN2CCN(CC(=O)Nc3ccccc3F)CC2)cc1OC -5.74%, O=S(=O)(c1ccc(F)cc1)N(Cc1nc(-c2ccccc2)no1)C1CCCCC1 -14%, CCOC(=O)c1ccc(NC(=O)COc2cccc3c(=O)n(C)ccc23)cc1 -6.62%, Cc1cc(Cl)ccc1OCC(=O)N1CCC(c2nc3ccccc3o2)CC1 -1.09%, Cc1ccc(CN(Cc2cccn2-c2nnc(N3CCCC3=O)s2)C(=O)Nc2ccc(F)cc2)cc1 -2.4%, O=C(COc1ccc(F)cc1)Nc1ccc(C(=O)OCc2cc(=O)n3nc(C4CC4)sc3n2)cc1 0%, CCOc1ccc(NC(=O)N2CCC(c3ccc(C)cc3)C2)cc1 (stereo unspecified) 0.67%, Cc1ccc(-n2nc(C(=O)Nc3ccc(Br)cc3C)c(=O)n(C)c2=O)cc1 -4.52%, CCOc1ccc(NC(=O)c2sc3nc4c(cc3c2N)CN(Cc2ccccc2)CC4)cc1 -6.43%, COc1ccccc1CNC(=O)CSCc1nc(-c2ccc(OC)c(OC)c2)oc1C -17.5%, COC(=O)c1ccc(NC(=O)C(=O)NCCc2csc(-c3ccc(C(F)(F)F)cc3)n2)cc1 -0.277%, CCCn1c2ccccc2c2cnn(CC(=O)NCc3ccc(OC)cc3)c(=O)c21 -1.89%, COc1ccc(OC)c(NC(=O)CCn2cccn2)c1 -3.95%, Cc1ccc(Cn2ccnc2SCC(=O)Nc2ccccc2C(F)(F)F)cc1 -7.26%, COc1ccccc1CNC(=O)C1CCN(S(=O)(=O)c2ccc3[nH]c(=O)ccc3c2)CC1 -3.63%, CCOc1ccc(NC(=O)Cn2c(=O)n(Cc3ccco3)c(=O)c3ccc(C(=O)NC4CCCC4)cc32)cc1 0.296%, CCc1nn(CC(=O)N2CCN(c3cccc(Cl)c3)CC2)c(=O)c2cc3sccc3n12 0.511%, Cc1ccccc1Cn1nc(C)c(NC(=O)c2cc(CC(C)C)on2)c1C -8.82%, COc1cc(OC)c(NC(=O)Cn2c(SCc3ccccc3F)nc3cccnc32)cc1Cl -4.82%, O=C1CC(c2cccc(Cl)c2Cl)c2cc3c(cc2N1)OCCO3 (stereo unspecified) -12.9%, CC(=O)c1ccc(N2CCN(c3nc4ccccc4c4nc(-c5cccc(C)c5)nn34)CC2)cc1 1.38%, CCOc1ccc(NC(=O)Cn2nc(SC)c(S(=O)(=O)c3ccccc3)c2N)cc1 10.6%, Cc1ccc(NC(=O)C2CCN(S(=O)(=O)c3ccc4c(c3)CCCN4C(=O)C3CCC3)CC2)cc1 -5.38%, O=C(NCCCN1CCCCC1)c1[nH]c2ccccc2c1Sc1ccc(Cl)cc1 -7.16%, Cc1c(Cl)cccc1-n1ncc(C(=O)N2CCC(C)CC2)c1C1CCN(C(=O)OC(C)(C)C)CC1 3.17%, Cc1cc(C)nc(NS(=O)(=O)c2ccc(NC(=O)c3nc(SC(C)C)ncc3Cl)cc2)n1 3.54%, COc1ccc(NC(=O)CSc2nc(-c3ccccc3)[nH]c2-c2ccccc2)cc1OC 3.24%, CN(C(=O)C1CCN(c2ncnc3c2nc2n3CCCCC2)CC1)c1ccccc1F -0.505%, CCN(CC)c1ccc(NC(=O)CN2CCN(S(=O)(=O)c3cc(Cl)ccc3OC)CC2)cc1 -16.4%, CC(=O)c1ccc(N2CCN(C(=O)c3cc4c(s3)-c3ccccc3OC4)CC2)cc1 -2.32%, CC(C)C(NS(=O)(=O)c1ccc2c(c1)oc(=O)n2C)C(=O)NCc1ccccc1 (stereo unspecified) -1.96%, Cc1oc(-c2ccc(C(=O)NCc3ccccc3F)cc2)nc1COc1ccccc1 -3.56%, O=C(Nc1cccc(C(=O)OCc2cc(=O)n3c4c(sc3n2)CCCC4)c1)c1cccc(Cl)c1 0.0495%, COc1cccc(NC(=O)Cn2nnc(C(=O)NCCc3ccccc3)c2N)c1 4.26%, Cn1cnc2c(=O)oc3ccc(S(=O)(=O)N4CCN(c5ccccc5F)CC4)cc3c21 -9.7%, Cc1nc(-c2ccc(S(=O)(=O)N(Cc3ccccc3)C(C)C)cc2)co1 -14.5%, COc1ccc(CCn2c(=O)c3cccnc3n(CC(=O)Nc3ccc(C)cc3C)c2=O)cc1OC -5.13%, Cn1cc(C(=O)Nc2ccc(C#N)cc2)c2ccccc2c1=O 0.764%, O=C(CSc1nc2c([nH]c3ccccc32)c(=O)n1-c1ccc(F)cc1)NCc1ccc(F)cc1 -0.618%, CCOc1ccc(CCNC(=O)c2ccc3c(c2)nc2n3CCOC2)cc1OCC 3.56%, CC(C)OCCCNC(=O)CCCn1c(SCC(N)=O)nc2c(sc3ccccc32)c1=O 0.0888%, Cc1ccc(Cl)cc1NC(=O)C1CCN(C(=O)c2cnn(-c3ccccc3)c2-n2cccc2)CC1 -5.78%, Cc1cc(C)c2c(=O)c3c(oc2c1)C(=O)N(Cc1ccco1)C3c1ccc(F)cc1 (stereo unspecified) -2.15%, CCN(CC)c1cc(C)c2cc(NC(=O)/C=C/c3ccccc3OC(C)C)ccc2n1 -16.7%, Cc1ccc(Oc2nc3ccccn3c(=O)c2/C=C(\C#N)c2nc3ccccc3s2)c(C)c1 6.47%
